From the supplement of paper PMC4604168 (melanoma cell lines)
The list shows a part of the results. Most values come without repeats; read them as rough.

test system: LOXIMVI; assay: cell count relative to DMSO control; melanoma cells; higher = more viable cells; conditions: library dose: low library concentration; 72 h
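Further: cell number obtained by counting DAPI-stained nuclei in high-throughput microscope images with image analysis software, screen run in 1,536-well plates.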

Row | Structure (SMILES) | cell count [%]
1 | C[C@]12O[C@H](C[C@]1(O)CO)n1c3ccccc3c3c4c(c5c6ccccc6n2c5c31)CNC4=O [Lestaurtinib] + CCN(CC)CCNC(=O)c1c(C)[nH]c(/C=C2\C(=O)Nc3ccc(F)cc32)c1C [sunitinib] (first compound 0.004 µM, partner dose 0.4 µM) | 84.7
2 | C[C@]12O[C@H](C[C@]1(O)CO)n1c3ccccc3c3c4c(c5c6ccccc6n2c5c31)CNC4=O [Lestaurtinib] + CS(=O)(=O)c1ccc(C(=O)Nc2ccc(Cl)c(-c3ccccn3)c2)c(Cl)c1 [vismodegib] (first compound 0.004 µM, partner dose 1 µM) | 63.9
3 | C[As](C)SC[C@H](NC(=O)CC[C@H](N)C(=O)O)C(=O)NCC(=O)O [Darinaparsin] + Cn1cc(/C=C2\C(=O)Nc3cccnc32)c2ccccc21 [GW441756] (first compound 0.4 µM, partner dose 0.4 µM) | 107
4 | C[C@]12O[C@H](C[C@]1(O)CO)n1c3ccccc3c3c4c(c5c6ccccc6n2c5c31)CNC4=O [Lestaurtinib] + CC(=O)c1c(C)c2cnc(Nc3ccc(N4CCNCC4)cn3)nc2n(C2CCCC2)c1=O [palbociclib] (first compound 0.004 µM, partner dose 0.04 µM) | 84.1
5 | C[C@]12O[C@H](C[C@]1(O)CO)n1c3ccccc3c3c4c(c5c6ccccc6n2c5c31)CNC4=O [Lestaurtinib] + Nc1nc(F)nc2c1ncn2[C@@H]1O[C@H](CO)[C@@H](O)[C@@H]1O [fludarabine] (first compound 0.004 µM, partner dose 0.2 µM) | 113
6 | Cn1cc(C2=C(c3cn(C4CCN(Cc5ccccn5)CC4)c4ccccc34)C(=O)NC2=O)c2ccccc21 [Enzastaurin] + C[C@]12O[C@H](C[C@]1(O)CO)n1c3ccccc3c3c4c(c5c6ccccc6n2c5c31)CNC4=O [Lestaurtinib] (first compound 0.8 µM, partner dose 0.004 µM) | 81.3
7 | C[C@]12O[C@H](C[C@]1(O)CO)n1c3ccccc3c3c4c(c5c6ccccc6n2c5c31)CNC4=O [Lestaurtinib] + CS(=O)(=O)CCNCc1ccc(-c2ccc3ncnc(Nc4ccc(OCc5cccc(F)c5)c(Cl)c4)c3c2)o1 [lapatinib] (first compound 0.004 µM, partner dose 0.8 µM) | 117
8 | C[C@]12O[C@H](C[C@]1(O)CO)n1c3ccccc3c3c4c(c5c6ccccc6n2c5c31)CNC4=O [Lestaurtinib] + Clc1ccc(Nc2nnc(Cc3ccncc3)c3ccccc23)cc1 [vatalanib] (first compound 0.004 µM, partner dose 2 µM) | 57.4
9 | C[C@]12O[C@H](C[C@]1(O)CO)n1c3ccccc3c3c4c(c5c6ccccc6n2c5c31)CNC4=O [Lestaurtinib] + Cc1cc(Nc2cc(N3CCN(C)CC3)nc(/C=C/c3ccccc3)n2)n[nH]1 [ENMD2076] (first compound 0.004 µM, partner dose 0.04 µM) | 89.3
10 | C[C@]12O[C@H](C[C@]1(O)CO)n1c3ccccc3c3c4c(c5c6ccccc6n2c5c31)CNC4=O [Lestaurtinib] + C#Cc1cccc(Nc2ncnc3cc(OCCOC)c(OCCOC)cc23)c1 [erlotinib] (first compound 0.004 µM, partner dose 0.8 µM) | 101
11 | C[C@]12O[C@H](C[C@]1(O)CO)n1c3ccccc3c3c4c(c5c6ccccc6n2c5c31)CNC4=O [Lestaurtinib] + Nc1ncn([C@H]2C[C@H](O)[C@@H](CO)O2)c(=O)n1 [decitabine] (first compound 0.004 µM, partner dose 0.1 µM) | 87.5
12 | C[C@]12O[C@H](C[C@]1(O)CO)n1c3ccccc3c3c4c(c5c6ccccc6n2c5c31)CNC4=O [Lestaurtinib] + COCC[n+]1c2c(n(Cc3cnccn3)c1C)C(=O)c1ccccc1C2=O [YM155] (first compound 0.004 µM, partner dose 0.0004 µM) | 103
13 | C[As](C)SC[C@H](NC(=O)CC[C@H](N)C(=O)O)C(=O)NCC(=O)O [Darinaparsin] + COC(=O)c1sccc1S(=O)(=O)Nc1ccc(Nc2ccccc2)cc1OC [GSK0660] (first compound 0.4 µM, partner dose 1 µM) | 86.4
14 | C[C@]12O[C@H](C[C@]1(O)CO)n1c3ccccc3c3c4c(c5c6ccccc6n2c5c31)CNC4=O [Lestaurtinib] + C[C@]1(c2nc3c(C(N)=O)cccc3[nH]2)CCCN1 [Veliparib] (first compound 0.004 µM, partner dose 1.4 µM) | 88.4
15 | C[As](C)SC[C@H](NC(=O)CC[C@H](N)C(=O)O)C(=O)NCC(=O)O [Darinaparsin] + O=C(Oc1ccc([N+](=O)[O-])cc1)N1CCC(C(O)(c2ccc3c(c2)OCO3)c2ccc3c(c2)OCO3)CC1 [JZL184] (first compound 0.4 µM, partner dose 1 µM) | 104
